# In PMC9911399, “Two distinct binding modes provide the RNA-binding protein RbFox with extraordinary sequence specificity”:
# Positions count from the first letter of the chain named. The list shows a part of the results.
# B1: ACAUCUC (DNA:RNA)
# RNA: GGGAGACCGGAAUUCAGAUUGUCCACAUCUCUUAAAUCCCGUCGUAGCCACCA
# DNA 1: CAATCTGAATTCCGGTCTCCC
# DNA 2: TGGTGGCTACGACGGGATT
# B2: CAAUACC (DNA:RNA)
# RNA: B1 RNA with A25C, C26A, C29A, U30C
# DNA 1: CAATCTGAATTCCGGTCTCCC
# DNA 2: TGGTGGCTACGACGGGATT
# B3: UGAGUGU (DNA:RNA)
# RNA: B1 RNA with A25U, C26G, U28G, C29U, U30G, C31U
# DNA 1: CAATCTGAATTCCGGTCTCCC
# DNA 2: TGGTGGCTACGACGGGATT
# B4: UUUGCCC (DNA:RNA)
# RNA: B1 RNA with A25U, C26U, A27U, U28G, U30C
# DNA 1: CAATCTGAATTCCGGTCTCCC
# DNA 2: TGGTGGCTACGACGGGATT
# B5: AAGCCAA (DNA:RNA)
# RNA: B1 RNA with C26A, A27G, U28C, U30A, C31A
# DNA 1: CAATCTGAATTCCGGTCTCCC
# DNA 2: TGGTGGCTACGACGGGATT
# B6: CCUAGUA (DNA:RNA)
# RNA: B1 RNA with A25C, A27U, U28A, C29G, C31A
# DNA 1: CAATCTGAATTCCGGTCTCCC
# DNA 2: TGGTGGCTACGACGGGATT
# B7: CCUCAAU (DNA:RNA)
# RNA: B1 RNA with A25C, A27U, U28C, C29A, U30A, C31U
# DNA 1: CAATCTGAATTCCGGTCTCCC
# DNA 2: TGGTGGCTACGACGGGATT
# B8: GGAACAU (DNA:RNA)
# RNA: B1 RNA with A25G, C26G, U28A, U30A, C31U
# DNA 1: CAATCTGAATTCCGGTCTCCC
# DNA 2: TGGTGGCTACGACGGGATT
# B9: GGGCAAC (DNA:RNA)
# RNA: B1 RNA with A25G, C26G, A27G, U28C, C29A, U30A
# DNA 1: CAATCTGAATTCCGGTCTCCC
# DNA 2: TGGTGGCTACGACGGGATT
# B10: AGGAUGC (DNA:RNA)
# RNA: B1 RNA with C26G, A27G, U28A, C29U, U30G
# DNA 1: CAATCTGAATTCCGGTCTCCC
# DNA 2: TGGTGGCTACGACGGGATT
# B11: UUCACGU (DNA:RNA)
# RNA: B1 RNA with A25U, C26U, A27C, U28A, U30G, C31U
# DNA 1: CAATCTGAATTCCGGTCTCCC
# DNA 2: TGGTGGCTACGACGGGATT
# B12: CAGAGGU (DNA:RNA)
# RNA: GGGAGACCGGAAUUCAGAUUGUCCCAGAGGUUUAAAUCCCGUCGUAGCCACCA
# DNA 1: CAATCTGAATTCCGGTCTCCC
# DNA 2: TGGTGGCTACGACGGGATT
# B13: CGUCGGC (DNA:RNA)
# RNA: B12 RNA with A26G, G27U, A28C, U31C
# DNA 1: CAATCTGAATTCCGGTCTCCC
# DNA 2: TGGTGGCTACGACGGGATT
# B14: AUCAUUA (DNA:RNA)
# RNA: B1 RNA with C26U, A27C, U28A, C29U, C31A
# DNA 1: CAATCTGAATTCCGGTCTCCC
# DNA 2: TGGTGGCTACGACGGGATT
# B15: UAAAAUG (DNA:RNA)
# RNA: B1 RNA with A25U, C26A, U28A, C29A, C31G
# DNA 1: CAATCTGAATTCCGGTCTCCC
# DNA 2: TGGTGGCTACGACGGGATT
# B16: CGCAAAC (DNA:RNA)
# RNA: B12 RNA with A26G, G27C, G29A, G30A, U31C
# DNA 1: CAATCTGAATTCCGGTCTCCC
# DNA 2: TGGTGGCTACGACGGGATT
# B17: GUCUUAG (DNA:RNA)
# RNA: B1 RNA with A25G, C26U, A27C, C29U, U30A, C31G
# DNA 1: CAATCTGAATTCCGGTCTCCC
# DNA 2: TGGTGGCTACGACGGGATT
# B18: UCCGAAU (DNA:RNA)
# RNA: B1 RNA with A25U, A27C, U28G, C29A, U30A, C31U
# DNA 1: CAATCTGAATTCCGGTCTCCC
# DNA 2: TGGTGGCTACGACGGGATT
# B19: CGUGUGU (DNA:RNA)
# RNA: B12 RNA with A26G, G27U, A28G, G29U
# DNA 1: CAATCTGAATTCCGGTCTCCC
# DNA 2: TGGTGGCTACGACGGGATT
# B20: CUGAUAU (DNA:RNA)
# RNA: B12 RNA with A26U, G29U, G30A
# DNA 1: CAATCTGAATTCCGGTCTCCC
# DNA 2: TGGTGGCTACGACGGGATT
# Biological target: T1, RBFOX1 RRM (Homo sapiens, UniProt Q9NWB1 109-208)
# T1 sequence: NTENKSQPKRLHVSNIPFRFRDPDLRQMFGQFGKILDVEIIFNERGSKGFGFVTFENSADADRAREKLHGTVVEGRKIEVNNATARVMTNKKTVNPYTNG
# Test: EMSA; HiTS-Eq, 1 nM pool, 10 min; buffer printed only for the single-RNA assays: 10 mM Tris pH 7.5, 150 mM NaCl, 3.4 mM EDTA, 0.001% NP-40, 30 C
# Details: tags: His6 N-terminal (pET28a); label: 5' 32P
# Summary of the method: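 Purified RbFox RRM (wild type or mutant) was equilibrated for 10 min in 50 µL with 1 nM of a 5′-radiolabelled pool of RNA with 7 randomized nucleotides, its flanks annealed to DNA oligonucleotides, across increasing protein concentrations. Free RNA was separated by 8% native PAGE, excised, reverse-transcribed, PCR-barcoded and sequenced on an Illumina HiSeq 2500. Relative association constants came from read-count changes of each variant against the control reaction, normalised to the cognate motif.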
row,Binder,binding signal
1,B1,0.00219 KA relative to UGCAUGU
2,B2,0.0011 KA relative to UGCAUGU
3,B3,0.0253 KA relative to UGCAUGU
4,B4,0.0146 KA relative to UGCAUGU
5,B5,0.000692 KA relative to UGCAUGU
6,B6,0.00375 KA relative to UGCAUGU
7,B7,0.00306 KA relative to UGCAUGU
8,B8,0.00888 KA relative to UGCAUGU
9,B9,0.014 KA relative to UGCAUGU
10,B10,0.0197 KA relative to UGCAUGU
11,B11,0.00918 KA relative to UGCAUGU
12,B12,0.012 KA relative to UGCAUGU
13,B13,0.0149 KA relative to UGCAUGU
14,B14,0.000424 KA relative to UGCAUGU
15,B15,0.00975 KA relative to UGCAUGU
16,B16,0.00289 KA relative to UGCAUGU
17,B17,0.0121 KA relative to UGCAUGU
18,B18,0.00694 KA relative to UGCAUGU
19,B19,0.0123 KA relative to UGCAUGU
20,B20,0.00562 KA relative to UGCAUGU
